Data as given in ChEMBL document CHEMBL5303300, “EUbOPEN Chemogenomics Library - Multiplex” (2023).
Not every entry of the source has a single result; some have several. This list holds those alone. The source may hold further records. The records of an entry repeat one measurement across runs, samples, wells, individuals or studies.

System: U2OS
Assay: Multiplex assay against U2OS
Format: toxicity, cell-based
Conditions: human, number of replicates 2
Method in brief: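 Four dyes were applied at seeding to live cells: Hoechst33342, BioTracker Green Microtubule Cytoskeleton Dye, MitoTracker Red and Annexin V Alexa Fluor 680. Imaging after compound addition used a CQ1 microscope at 37°C and 5% CO2. CellPathfinder machine-learning gating then sorted cells into Hoechst high-intensity objects or normal cells, normal cells into healthy, pyknosed or fragmented nuclei, and pyknosed cells into mitotic or apoptotic, with tubulin, mitochondrial-mass and membrane-permeability phenotypes given as per cents of healthy-nucleus cells.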

[1] = 12 h, 1 µM, compound concentration 1 uM
[2] = 12 h, 10 µM, compound concentration 10 uM
[3] = 24 h, 1 µM, compound concentration 1 uM
[4] = 24 h, 10 µM, compound concentration 10 uM
[5] = 48 h, 1 µM, compound concentration 1 uM
[6] = 48 h, 10 µM, compound concentration 10 uM

| SMILES | Population Fragmented Nuclei (%) [1] | Total Cell Count [1] | Total Cell Count [2] | Population Fragmented Nuclei (%) [3] | Total Cell Count [3] | Total Cell Count [4] | Population Fragmented Nuclei (%) [5] | Total Cell Count [5] | Total Cell Count [6] | Population Fragmented Nuclei (%) [2] | Population Fragmented Nuclei (%) [4] | also measured |
| --- | --- | --- | --- | --- | --- | --- | --- | --- | --- | --- | --- | --- |
| Cn1cc(-c2ccc(N(C(=O)NCc3ccccc3)[C@H]3CC[C@H](Nc4ccc(C#N)cn4)CC3)cc2)ccc1=O | 36% and 0% | 41 and 182 | 36 and 241 | 40% and 2% | 47 and 263 | 35 and 239 | 23% and 2% | 63 and 467 | 42 and 214 | – | – | Population Mitotic Cells (%) [2]: 6% and 40% |
| Cc1cc(-c2cnc(N)c3c(-c4ccc5scnc5c4)csc23)n(C)n1 | – | – | 62 and 230 | – | 56 and 206 | 84 and 293 | – | 102 and 435 | 99 and 417 | 19% and 5% | 18% and 3% | – |
| O=C1CCCN1CCNc1nc(Nc2ccc(Cl)c(Cl)c2)ncc1C(F)(F)F | – | 17 and 289 | 19 and 188 | – | 31 and 422 | 232 and 40 | – | 58 and 814 | 309 and 47 | 21% and 5% | 3% and 17% | Population Pyknosed Nuclei (%) [1]: 23% and 5%; Population Mitotic Cells (%) [2]: 0% and 42%; Population Mitotic Cells (%) [3]: 0% and 26% |
| CCc1ncnc(N2CCN(C(C)=O)CC2)c1C#Cc1ccc(N)nc1.Cl.Cl | – | 52 and 291 | 66 and 209 | – | 62 and 358 | 62 and 254 | 15% and 3% | 73 and 417 | 59 and 233 | – | – | Population Mitotic Cells (%) [1]: 0% and 29% |
| CN(C)C/C=C/C(=O)Nc1cc2c(Nc3ccc(F)c(Cl)c3)ncnc2cc1OC[C@@H]1CCCO1 | 37% and 6% | 27 and 214 | 26 and 259 | 36% and 4% | 33 and 236 | 30 and 251 | 39% and 4% | 28 and 327 | 39 and 238 | 26% and 7% | 36% and 6% | Population Healthy Nuclei (%) [4]: 16% and 55%; Population Fragmented Nuclei (%) [6]: 46% and 10%; Population Healthy Nuclei (%) [6]: 10% and 33% |
| CS(=O)(=O)c1ccc(C(=O)Nc2ccc(F)c(COc3ccc(Br)cc3CN3CC[C@H](O)C3)c2)c(Cl)c1.O=CO | – | 50 and 204 | 36 and 161 | – | 59 and 287 | 179 and 40 | – | 83 and 503 | 47 and 241 | – | – | – |
| CS(=O)(=O)c1ccc(C(=O)Nc2cccc(COc3ccc(Br)cc3CNCCO)c2)c(Cl)c1.O=CO | – | 35 and 250 | 70 and 215 | – | 53 and 351 | 70 and 258 | – | 77 and 622 | 78 and 343 | – | – | – |
| CN1CCN(C(=O)Cc2ccc(N/C(=C3\C(=O)Nc4cc(Cl)ccc43)c3ccccc3)cc2)CC1 | 35% and 2% | 42 and 191 | 205 and 31 | 18% and 2% | 37 and 257 | 32 and 287 | 14% and 2% | 41 and 554 | 58 and 550 | – | – | Population Mitotic Cells (%) [1]: 0% and 45%; Population Apoptotic (%) [2]: 56% and 0%; Population Membrane Permeable-Phenotype (%) [2]: 1% and 12%; Population Membrane Permeable-Phenotype (%) [3]: 12% and 1% |
| CC(=O)N(CCN(C)C)c1ccc(N/C(=C2\C(=O)Nc3cc(Cl)ccc32)c2ccccc2)cn1 | 3% and 19% | 249 and 58 | 42 and 186 | – | 306 and 54 | 182 and 45 | – | 506 and 86 | 220 and 50 | – | – | – |
